Results taken from ChEMBL document CHEMBL1961873, “Compounds: GSK PKIS; Assays: Nanosyn kinase panel” (2012).
For some of these results: Most of the strong results are listed elsewhere, so they are rarer here than in the full data. The entries are a selection whose mix differs from that of the whole data set.

Key:
[1] = molecular target: Rho-associated protein kinase 1 (Homo sapiens) (UniProt Q13464); settings: at 1 µM;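 also: reported values are mean percent inhibition of ROCK1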
[2] = molecular target: Rho-associated protein kinase 2 (Homo sapiens) (UniProt O75116); settings: at 0.1 µM
UniProt O75116, sequence (O75116 whole entry, looked up): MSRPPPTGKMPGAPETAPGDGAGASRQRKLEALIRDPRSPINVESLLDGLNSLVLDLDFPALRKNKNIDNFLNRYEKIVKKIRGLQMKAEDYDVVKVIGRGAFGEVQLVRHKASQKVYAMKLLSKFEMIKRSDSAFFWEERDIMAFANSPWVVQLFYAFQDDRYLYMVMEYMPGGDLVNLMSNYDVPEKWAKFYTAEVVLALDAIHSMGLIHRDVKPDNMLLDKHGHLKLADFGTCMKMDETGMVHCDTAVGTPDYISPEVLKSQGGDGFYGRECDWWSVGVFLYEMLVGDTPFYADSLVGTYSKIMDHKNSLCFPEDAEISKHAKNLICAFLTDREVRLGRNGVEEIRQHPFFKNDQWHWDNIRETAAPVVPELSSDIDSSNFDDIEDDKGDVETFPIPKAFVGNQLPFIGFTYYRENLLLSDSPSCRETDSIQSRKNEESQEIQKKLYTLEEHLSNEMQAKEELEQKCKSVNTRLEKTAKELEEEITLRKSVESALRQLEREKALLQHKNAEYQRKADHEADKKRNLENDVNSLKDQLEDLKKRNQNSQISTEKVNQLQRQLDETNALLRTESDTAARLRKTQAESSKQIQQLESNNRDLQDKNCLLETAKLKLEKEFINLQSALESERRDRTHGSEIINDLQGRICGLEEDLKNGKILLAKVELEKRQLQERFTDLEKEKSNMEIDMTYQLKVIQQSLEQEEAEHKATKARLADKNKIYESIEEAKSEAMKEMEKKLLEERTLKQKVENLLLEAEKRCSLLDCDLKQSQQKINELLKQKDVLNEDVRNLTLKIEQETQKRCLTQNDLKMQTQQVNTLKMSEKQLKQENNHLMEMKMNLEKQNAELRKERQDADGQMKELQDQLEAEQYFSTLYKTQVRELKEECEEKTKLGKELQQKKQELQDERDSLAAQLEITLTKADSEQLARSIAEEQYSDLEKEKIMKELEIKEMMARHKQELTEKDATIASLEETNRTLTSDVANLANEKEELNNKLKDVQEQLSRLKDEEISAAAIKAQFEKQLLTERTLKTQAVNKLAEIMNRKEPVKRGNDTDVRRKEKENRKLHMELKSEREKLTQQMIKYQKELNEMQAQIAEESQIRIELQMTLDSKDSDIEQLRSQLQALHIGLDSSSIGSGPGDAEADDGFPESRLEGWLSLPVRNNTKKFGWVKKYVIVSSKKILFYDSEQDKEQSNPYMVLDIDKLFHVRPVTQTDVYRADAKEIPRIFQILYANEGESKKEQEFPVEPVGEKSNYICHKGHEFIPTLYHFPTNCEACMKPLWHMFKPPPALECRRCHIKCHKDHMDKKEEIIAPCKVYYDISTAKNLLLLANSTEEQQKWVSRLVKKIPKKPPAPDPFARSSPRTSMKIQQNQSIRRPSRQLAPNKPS

[3] = molecular target: Rho-associated protein kinase 2 (Homo sapiens) (UniProt O75116); settings: at 1 µM
[4] = molecular target: Ribosomal protein S6 kinase alpha-1 (Homo sapiens) (UniProt Q15418); settings: at 0.1 µM
UniProt Q15418, sequence (Q15418 whole entry): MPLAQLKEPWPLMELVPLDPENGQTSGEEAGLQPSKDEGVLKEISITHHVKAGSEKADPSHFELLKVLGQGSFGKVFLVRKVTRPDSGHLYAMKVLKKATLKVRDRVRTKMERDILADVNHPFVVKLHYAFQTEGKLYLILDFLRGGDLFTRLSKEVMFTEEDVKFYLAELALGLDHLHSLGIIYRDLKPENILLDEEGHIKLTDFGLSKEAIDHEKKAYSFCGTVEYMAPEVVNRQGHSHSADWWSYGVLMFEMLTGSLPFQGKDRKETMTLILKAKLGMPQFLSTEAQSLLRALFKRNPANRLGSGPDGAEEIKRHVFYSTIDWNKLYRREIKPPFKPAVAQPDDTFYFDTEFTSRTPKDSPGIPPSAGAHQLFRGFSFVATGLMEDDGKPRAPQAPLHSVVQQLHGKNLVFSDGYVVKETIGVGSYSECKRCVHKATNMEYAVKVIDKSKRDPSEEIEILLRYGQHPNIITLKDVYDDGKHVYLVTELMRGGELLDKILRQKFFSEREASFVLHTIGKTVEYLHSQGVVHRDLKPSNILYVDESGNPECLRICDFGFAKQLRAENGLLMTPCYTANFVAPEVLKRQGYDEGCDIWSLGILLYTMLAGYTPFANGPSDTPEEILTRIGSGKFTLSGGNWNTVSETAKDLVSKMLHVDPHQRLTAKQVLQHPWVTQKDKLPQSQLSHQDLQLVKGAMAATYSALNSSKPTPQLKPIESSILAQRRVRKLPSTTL

[5] = molecular target: Ribosomal protein S6 kinase alpha-1 (Homo sapiens) (UniProt Q15418); settings: at 1 µM
[6] = molecular target: Ribosomal protein S6 kinase alpha-3 (Homo sapiens) (UniProt P51812); settings: at 0.1 µM
UniProt P51812, sequence (P51812 whole entry): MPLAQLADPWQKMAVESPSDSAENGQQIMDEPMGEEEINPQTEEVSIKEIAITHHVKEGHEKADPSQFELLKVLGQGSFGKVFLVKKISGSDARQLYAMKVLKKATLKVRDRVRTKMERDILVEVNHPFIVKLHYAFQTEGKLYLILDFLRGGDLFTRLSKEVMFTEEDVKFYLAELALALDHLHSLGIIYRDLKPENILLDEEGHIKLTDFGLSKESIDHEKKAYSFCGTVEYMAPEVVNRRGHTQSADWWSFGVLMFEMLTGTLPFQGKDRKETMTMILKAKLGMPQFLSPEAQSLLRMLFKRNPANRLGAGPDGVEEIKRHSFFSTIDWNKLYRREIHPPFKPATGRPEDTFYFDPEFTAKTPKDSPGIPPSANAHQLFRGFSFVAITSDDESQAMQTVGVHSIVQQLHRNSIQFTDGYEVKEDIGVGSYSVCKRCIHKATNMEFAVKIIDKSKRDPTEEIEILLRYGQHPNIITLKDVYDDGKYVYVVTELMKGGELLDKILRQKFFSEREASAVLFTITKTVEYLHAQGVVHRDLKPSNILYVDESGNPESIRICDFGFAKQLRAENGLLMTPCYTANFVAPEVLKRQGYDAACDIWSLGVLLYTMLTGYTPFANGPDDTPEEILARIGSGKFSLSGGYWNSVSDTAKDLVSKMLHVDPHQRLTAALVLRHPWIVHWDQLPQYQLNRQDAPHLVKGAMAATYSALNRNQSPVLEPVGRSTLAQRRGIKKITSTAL

[7] = molecular target: Ribosomal protein S6 kinase alpha-3 (Homo sapiens) (UniProt P51812); settings: at 1 µM
[8] = molecular target: Ribosomal protein S6 kinase alpha-2 (Homo sapiens) (UniProt Q15349); settings: at 0.1 µM
[9] = molecular target: Ribosomal protein S6 kinase alpha-2 (Homo sapiens) (UniProt Q15349); settings: at 1 µM
[10] = molecular target: Ribosomal protein S6 kinase alpha-6 (Homo sapiens) (UniProt Q9UK32); settings: at 0.1 µM
UniProt Q9UK32, sequence (Q9UK32 whole entry): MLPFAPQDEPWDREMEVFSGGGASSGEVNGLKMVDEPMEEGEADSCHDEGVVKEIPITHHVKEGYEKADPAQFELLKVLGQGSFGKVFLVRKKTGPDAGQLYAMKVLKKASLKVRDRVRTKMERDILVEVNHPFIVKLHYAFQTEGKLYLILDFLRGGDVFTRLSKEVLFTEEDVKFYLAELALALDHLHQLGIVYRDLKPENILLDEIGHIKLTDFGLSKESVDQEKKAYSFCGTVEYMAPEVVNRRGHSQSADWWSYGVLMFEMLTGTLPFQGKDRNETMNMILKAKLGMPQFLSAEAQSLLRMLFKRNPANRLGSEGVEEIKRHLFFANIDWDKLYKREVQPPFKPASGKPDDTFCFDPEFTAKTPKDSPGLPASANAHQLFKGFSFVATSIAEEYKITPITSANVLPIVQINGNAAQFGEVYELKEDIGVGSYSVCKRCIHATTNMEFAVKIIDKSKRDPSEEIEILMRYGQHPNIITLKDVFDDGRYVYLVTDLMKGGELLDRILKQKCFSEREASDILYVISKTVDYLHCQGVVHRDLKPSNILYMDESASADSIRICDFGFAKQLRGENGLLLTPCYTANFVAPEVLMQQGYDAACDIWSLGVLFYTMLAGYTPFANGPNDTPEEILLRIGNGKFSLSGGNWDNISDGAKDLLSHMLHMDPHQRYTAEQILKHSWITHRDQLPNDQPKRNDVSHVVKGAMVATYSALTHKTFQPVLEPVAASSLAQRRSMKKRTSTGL

[11] = molecular target: Ribosomal protein S6 kinase alpha-6 (Homo sapiens) (UniProt Q9UK32); settings: at 1 µM
[12] = molecular target: T1, Serine/threonine-protein kinase Sgk1 (Homo sapiens) (UniProt O00141); settings: at 0.1 µM
T1 sequence (whole entry): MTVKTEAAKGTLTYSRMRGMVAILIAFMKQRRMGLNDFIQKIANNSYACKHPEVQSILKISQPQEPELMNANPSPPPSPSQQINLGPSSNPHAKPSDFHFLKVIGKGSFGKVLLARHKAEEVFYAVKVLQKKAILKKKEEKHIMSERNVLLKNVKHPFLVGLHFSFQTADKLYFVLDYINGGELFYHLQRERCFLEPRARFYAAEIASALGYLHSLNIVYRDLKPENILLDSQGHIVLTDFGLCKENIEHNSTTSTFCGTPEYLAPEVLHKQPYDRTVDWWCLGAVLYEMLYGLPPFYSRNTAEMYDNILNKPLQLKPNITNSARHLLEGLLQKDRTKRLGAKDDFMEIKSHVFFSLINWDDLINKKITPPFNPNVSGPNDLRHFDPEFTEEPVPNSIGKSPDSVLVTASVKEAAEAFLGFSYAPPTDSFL

[13] = molecular target: T1, Serine/threonine-protein kinase Sgk1 (Homo sapiens); settings: at 1 µM
[14] = molecular target: T2, Serine/threonine-protein kinase Sgk2 (Homo sapiens) (UniProt Q9HBY8); settings: at 0.1 µM
T2 sequence (whole entry): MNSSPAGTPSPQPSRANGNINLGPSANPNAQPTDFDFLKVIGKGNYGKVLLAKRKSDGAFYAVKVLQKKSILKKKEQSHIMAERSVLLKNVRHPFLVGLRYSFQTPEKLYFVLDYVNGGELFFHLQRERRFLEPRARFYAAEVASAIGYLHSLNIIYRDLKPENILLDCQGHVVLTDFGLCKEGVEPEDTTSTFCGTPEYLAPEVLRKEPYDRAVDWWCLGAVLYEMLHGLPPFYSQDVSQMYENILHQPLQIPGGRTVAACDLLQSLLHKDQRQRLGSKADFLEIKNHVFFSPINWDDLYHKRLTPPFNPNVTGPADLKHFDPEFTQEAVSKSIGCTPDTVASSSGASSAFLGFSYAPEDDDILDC

[15] = molecular target: T2, Serine/threonine-protein kinase Sgk2 (Homo sapiens); settings: at 1 µM
[16] = molecular target: T3, Serine/threonine-protein kinase Sgk3 (Homo sapiens) (UniProt Q96BR1); settings: at 0.1 µM
T3 sequence (whole entry): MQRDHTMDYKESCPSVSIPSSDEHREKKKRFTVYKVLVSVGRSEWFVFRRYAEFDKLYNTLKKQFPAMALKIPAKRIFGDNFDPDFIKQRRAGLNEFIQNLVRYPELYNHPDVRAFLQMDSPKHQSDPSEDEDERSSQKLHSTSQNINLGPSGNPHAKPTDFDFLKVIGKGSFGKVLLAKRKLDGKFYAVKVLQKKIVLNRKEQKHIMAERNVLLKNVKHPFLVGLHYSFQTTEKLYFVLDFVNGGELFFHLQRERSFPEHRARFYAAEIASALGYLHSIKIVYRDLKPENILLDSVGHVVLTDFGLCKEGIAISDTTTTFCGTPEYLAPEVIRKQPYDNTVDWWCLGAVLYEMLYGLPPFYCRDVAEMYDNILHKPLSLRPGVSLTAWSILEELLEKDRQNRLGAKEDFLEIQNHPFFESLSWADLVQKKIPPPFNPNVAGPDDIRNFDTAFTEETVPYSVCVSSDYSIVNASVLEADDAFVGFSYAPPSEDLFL

[17] = molecular target: T3, Serine/threonine-protein kinase Sgk3 (Homo sapiens); settings: at 1 µM
[18] = molecular target: 5'-AMP-activated protein kinase catalytic subunit alpha-1 (Homo sapiens) (UniProt Q13131); settings: at 0.1 µM
UniProt Q13131, sequence (Q13131 whole entry, looked up): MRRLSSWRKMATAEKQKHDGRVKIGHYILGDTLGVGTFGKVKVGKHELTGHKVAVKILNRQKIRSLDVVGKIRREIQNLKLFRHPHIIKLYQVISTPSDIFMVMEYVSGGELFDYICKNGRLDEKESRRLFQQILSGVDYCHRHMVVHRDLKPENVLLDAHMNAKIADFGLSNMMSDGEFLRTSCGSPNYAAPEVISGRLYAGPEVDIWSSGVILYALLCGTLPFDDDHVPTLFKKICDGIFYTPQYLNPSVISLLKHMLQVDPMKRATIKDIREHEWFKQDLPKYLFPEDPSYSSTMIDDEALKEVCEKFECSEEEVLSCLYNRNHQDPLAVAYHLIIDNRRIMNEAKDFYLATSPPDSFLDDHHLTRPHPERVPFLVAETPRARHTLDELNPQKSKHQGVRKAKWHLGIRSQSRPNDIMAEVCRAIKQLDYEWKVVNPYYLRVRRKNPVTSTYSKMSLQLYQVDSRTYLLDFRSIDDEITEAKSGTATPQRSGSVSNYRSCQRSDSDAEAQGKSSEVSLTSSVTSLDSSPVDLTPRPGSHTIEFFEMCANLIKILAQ

[19] = molecular target: 5'-AMP-activated protein kinase catalytic subunit alpha-1 (Homo sapiens) (UniProt Q13131); settings: at 1 µM
[20] = molecular target: 5'-AMP-activated protein kinase catalytic subunit alpha-2 (Homo sapiens) (UniProt P54646); settings: at 0.1 µM;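 also: mean inhibition measured on the AMPK complex of alpha2, beta1 and gamma1 subunits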
UniProt P54646, sequence (P54646 whole entry, looked up): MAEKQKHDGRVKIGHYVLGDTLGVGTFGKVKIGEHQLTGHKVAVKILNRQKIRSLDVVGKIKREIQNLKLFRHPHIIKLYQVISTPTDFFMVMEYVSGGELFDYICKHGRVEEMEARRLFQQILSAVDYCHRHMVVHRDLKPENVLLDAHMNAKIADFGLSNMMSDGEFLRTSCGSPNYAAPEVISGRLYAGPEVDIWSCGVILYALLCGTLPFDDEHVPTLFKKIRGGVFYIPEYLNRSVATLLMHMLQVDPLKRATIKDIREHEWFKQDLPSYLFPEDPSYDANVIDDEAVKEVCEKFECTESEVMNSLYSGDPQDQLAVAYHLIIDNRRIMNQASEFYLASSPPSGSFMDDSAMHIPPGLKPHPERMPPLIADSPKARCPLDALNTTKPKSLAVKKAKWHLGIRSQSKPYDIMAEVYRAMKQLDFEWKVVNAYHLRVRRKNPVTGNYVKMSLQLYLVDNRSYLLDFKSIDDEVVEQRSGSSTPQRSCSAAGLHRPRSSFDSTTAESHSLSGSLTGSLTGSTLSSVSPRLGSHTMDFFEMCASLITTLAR

| Structure (SMILES) | inhibition [1] | inhibition [2] | inhibition [3] | inhibition [4] | inhibition [5] | inhibition [6] | inhibition [7] | inhibition [8] | inhibition [9] | inhibition [10] | inhibition [11] | inhibition [12] | inhibition [13] | inhibition [14] | inhibition [15] | inhibition [16] | inhibition [17] | inhibition [18] | inhibition [19] | inhibition [20] |
| --- | --- | --- | --- | --- | --- | --- | --- | --- | --- | --- | --- | --- | --- | --- | --- | --- | --- | --- | --- | --- |
| CS(=O)(=O)c1ccc(Oc2nccc(-c3c(-c4ccc(F)cc4)ncn3C3CCNCC3)n2)cc1 | 3.26% | 3.03% | 3.45% | 0.27% | 1.4% | 1.64% | 1.45% | 1.73% | 2.32% | 0.53% | 0.45% | 3.75% | 2.04% | 3.31% | 1.96% | 1.37% | 4.22% | 2.41% | 3.51% | 2.06% |
| Fc1ccc(-c2ncn(C3CCNCC3)c2-c2ccnc(Oc3cccc(C(F)(F)F)c3)n2)cc1 | 3.13% | 3.87% | 3.72% | 1.78% | 5.59% | 1.01% | -0.14% | 2.37% | 2.82% | 0.51% | 0.63% | 4.08% | 3.32% | 2.14% | 5.28% | 3.05% | 5.02% | 3.44% | 4.51% | 3.92% |
| Fc1ccc(-c2ncn(C3CCNCC3)c2-c2ccnc(Oc3ccc(Cl)cc3)n2)cc1 | 2.5% | 0.7% | 0.87% | -0.43% | -0.6% | -1.56% | -0.44% | 0.99% | 2.01% | -0.75% | 0.04% | 1.68% | 0.8% | 0.37% | 1.38% | 0.04% | -0.05% | 10% | -0.04% | 2.52% |
| Fc1ccc(Oc2nccc(-c3c(-c4ccc(F)cc4)ncn3C3CCNCC3)n2)cc1 | 1.58% | 2.81% | 2.18% | 1.25% | 0.35% | -0.53% | -1.25% | 2.02% | 0.02% | 0.73% | 0.39% | 1.63% | 0.85% | 2.32% | 3.35% | 3.29% | 2.8% | 2.91% | 3.45% | 6.3% |
| NC(=O)CCc1ccccc1Oc1nccc(-c2c(-c3ccc(F)cc3)ncn2C2CCNCC2)n1 | 0.72% | -0.65% | -0.5% | -0.45% | 1.1% | -0.57% | -1.82% | 0.35% | 0.42% | -1.65% | 0.12% | 1.87% | 0.47% | 1.07% | 2.65% | -1.9% | 1.01% | 0.72% | -0.27% | 3.01% |
| COc1ccccc1C1=C(Nc2ccccc2)C(=O)NC1=O | 0.72% | 3.16% | 4.34% | 1.67% | 4.91% | 1.36% | 4.83% | 2.69% | 11.3% | 2.45% | 11.1% | 1.69% | 3.01% | 0.36% | 1.68% | 3.53% | 5.07% | 2.92% | 5.01% | 1.85% |
| O=C(O)c1ccc(Oc2nccc(-c3c(-c4ccc(F)cc4)ncn3C3CCNCC3)n2)cc1 | 2.08% | 2.6% | 3.44% | 0.55% | 1.46% | -0.13% | 1.21% | 0.19% | 2.1% | -0.07% | 1.86% | 1.16% | 2.81% | 3.28% | 2.6% | 3.28% | 4.11% | 1.57% | 3.95% |  |
